The source of these data is paper PMC6097439 (BMC Biology, 2018).

Chains of the proteins cited; added tags and fusions are not shown. Lines headed by an entry give the natural chain unless they say otherwise; changes in a name come on top. Residues count along the entry.
UniProt Q02763: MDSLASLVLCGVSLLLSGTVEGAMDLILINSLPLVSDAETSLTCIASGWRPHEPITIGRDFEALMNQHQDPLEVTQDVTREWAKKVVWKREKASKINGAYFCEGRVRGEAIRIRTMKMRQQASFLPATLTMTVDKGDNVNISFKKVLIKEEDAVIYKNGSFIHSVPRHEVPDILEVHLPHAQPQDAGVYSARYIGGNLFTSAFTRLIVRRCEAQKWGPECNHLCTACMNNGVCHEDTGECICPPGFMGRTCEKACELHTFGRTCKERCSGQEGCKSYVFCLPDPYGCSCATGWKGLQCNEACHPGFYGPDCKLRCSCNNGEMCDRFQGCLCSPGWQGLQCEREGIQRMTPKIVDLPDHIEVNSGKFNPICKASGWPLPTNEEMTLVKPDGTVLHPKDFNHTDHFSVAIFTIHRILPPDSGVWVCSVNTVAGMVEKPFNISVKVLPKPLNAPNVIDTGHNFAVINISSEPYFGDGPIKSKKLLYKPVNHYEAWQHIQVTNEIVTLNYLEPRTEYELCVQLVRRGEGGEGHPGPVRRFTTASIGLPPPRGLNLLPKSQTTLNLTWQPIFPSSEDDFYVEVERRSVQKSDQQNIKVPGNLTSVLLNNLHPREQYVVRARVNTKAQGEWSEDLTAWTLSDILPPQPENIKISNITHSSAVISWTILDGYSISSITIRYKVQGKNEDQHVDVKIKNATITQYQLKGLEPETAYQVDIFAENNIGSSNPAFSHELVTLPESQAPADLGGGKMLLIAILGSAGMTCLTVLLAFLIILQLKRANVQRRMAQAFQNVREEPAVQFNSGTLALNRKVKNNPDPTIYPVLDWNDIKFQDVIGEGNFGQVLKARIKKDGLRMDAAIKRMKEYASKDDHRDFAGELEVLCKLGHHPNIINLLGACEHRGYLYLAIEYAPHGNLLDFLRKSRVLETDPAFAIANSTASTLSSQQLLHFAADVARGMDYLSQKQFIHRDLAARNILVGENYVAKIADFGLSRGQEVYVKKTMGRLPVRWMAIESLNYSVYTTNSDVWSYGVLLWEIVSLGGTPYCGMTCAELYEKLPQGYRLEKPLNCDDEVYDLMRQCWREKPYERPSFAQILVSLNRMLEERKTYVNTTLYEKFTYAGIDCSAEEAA
Tie2 expressed on TIME cells (human (endogenous in TIME cells)): residues 23-1124 of Q02763
UniProt P06756: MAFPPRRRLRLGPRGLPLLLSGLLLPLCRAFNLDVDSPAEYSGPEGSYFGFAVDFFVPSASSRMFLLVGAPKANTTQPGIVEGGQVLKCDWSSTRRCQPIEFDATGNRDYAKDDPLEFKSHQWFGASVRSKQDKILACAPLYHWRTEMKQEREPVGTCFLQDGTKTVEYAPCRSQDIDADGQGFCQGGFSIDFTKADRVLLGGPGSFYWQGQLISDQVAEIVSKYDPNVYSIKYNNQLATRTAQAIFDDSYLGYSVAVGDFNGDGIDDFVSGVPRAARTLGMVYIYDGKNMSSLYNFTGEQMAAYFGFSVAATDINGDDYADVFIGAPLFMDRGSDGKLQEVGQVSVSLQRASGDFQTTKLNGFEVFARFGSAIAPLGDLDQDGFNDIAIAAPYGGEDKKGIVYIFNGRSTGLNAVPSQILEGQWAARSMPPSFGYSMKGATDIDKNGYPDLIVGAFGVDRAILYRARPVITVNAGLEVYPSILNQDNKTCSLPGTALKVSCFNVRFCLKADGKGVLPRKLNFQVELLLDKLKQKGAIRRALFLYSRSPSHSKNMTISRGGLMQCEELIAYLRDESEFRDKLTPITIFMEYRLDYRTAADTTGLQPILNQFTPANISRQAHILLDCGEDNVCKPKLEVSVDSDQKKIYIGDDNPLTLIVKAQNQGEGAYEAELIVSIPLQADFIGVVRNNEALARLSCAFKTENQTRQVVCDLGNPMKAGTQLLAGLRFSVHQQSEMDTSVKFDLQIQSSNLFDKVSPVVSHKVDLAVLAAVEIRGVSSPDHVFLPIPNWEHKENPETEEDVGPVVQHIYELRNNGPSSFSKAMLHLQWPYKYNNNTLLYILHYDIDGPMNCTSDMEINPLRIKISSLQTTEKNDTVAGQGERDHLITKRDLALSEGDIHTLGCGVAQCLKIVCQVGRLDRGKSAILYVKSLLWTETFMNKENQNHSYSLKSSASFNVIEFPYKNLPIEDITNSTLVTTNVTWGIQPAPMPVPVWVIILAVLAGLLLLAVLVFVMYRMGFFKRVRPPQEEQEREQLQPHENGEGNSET
UniProt P05106: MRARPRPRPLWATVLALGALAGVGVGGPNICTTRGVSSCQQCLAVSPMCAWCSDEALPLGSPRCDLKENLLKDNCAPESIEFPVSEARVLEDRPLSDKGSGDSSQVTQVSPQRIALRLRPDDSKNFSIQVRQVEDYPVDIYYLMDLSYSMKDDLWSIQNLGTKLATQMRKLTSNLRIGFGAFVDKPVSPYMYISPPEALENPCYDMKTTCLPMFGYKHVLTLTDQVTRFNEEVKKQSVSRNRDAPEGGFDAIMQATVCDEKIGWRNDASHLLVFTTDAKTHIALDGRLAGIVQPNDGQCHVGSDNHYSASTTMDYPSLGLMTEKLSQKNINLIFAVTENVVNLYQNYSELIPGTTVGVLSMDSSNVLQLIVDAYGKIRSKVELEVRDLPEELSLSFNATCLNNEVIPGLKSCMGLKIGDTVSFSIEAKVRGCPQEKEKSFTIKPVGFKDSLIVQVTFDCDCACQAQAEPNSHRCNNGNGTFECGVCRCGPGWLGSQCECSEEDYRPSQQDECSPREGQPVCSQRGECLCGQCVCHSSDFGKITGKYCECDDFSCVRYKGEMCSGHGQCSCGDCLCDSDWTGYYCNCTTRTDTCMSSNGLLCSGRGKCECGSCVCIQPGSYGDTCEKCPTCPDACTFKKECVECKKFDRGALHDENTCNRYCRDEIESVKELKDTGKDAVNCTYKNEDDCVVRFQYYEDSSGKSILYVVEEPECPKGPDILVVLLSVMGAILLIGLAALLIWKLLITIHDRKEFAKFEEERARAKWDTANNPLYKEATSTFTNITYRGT
UniProt P13612: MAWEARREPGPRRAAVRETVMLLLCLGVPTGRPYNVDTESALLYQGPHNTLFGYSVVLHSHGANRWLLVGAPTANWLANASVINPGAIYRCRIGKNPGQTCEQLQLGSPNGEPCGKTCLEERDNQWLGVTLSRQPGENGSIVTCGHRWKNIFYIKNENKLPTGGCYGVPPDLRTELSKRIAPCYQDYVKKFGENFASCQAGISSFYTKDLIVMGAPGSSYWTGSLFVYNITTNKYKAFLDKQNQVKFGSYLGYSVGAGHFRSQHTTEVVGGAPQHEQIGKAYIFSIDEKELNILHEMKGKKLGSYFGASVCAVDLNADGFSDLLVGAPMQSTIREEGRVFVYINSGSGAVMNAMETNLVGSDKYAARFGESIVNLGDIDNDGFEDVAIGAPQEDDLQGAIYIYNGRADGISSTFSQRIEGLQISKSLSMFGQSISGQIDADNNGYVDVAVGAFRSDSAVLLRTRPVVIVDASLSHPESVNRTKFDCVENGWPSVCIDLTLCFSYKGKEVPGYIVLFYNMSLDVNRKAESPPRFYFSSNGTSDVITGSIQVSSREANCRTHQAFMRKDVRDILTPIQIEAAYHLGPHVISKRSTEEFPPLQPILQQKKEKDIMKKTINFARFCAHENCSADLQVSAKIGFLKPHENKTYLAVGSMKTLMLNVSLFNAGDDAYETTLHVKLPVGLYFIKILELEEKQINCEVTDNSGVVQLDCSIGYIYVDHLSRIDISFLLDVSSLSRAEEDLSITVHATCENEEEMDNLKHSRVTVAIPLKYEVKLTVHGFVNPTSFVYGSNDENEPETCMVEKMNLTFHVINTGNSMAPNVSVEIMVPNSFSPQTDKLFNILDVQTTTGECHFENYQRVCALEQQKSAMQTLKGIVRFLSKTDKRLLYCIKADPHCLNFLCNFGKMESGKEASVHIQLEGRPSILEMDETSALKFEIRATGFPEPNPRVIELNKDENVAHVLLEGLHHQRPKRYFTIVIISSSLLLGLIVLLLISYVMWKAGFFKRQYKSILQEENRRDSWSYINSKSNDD
UniProt P26010: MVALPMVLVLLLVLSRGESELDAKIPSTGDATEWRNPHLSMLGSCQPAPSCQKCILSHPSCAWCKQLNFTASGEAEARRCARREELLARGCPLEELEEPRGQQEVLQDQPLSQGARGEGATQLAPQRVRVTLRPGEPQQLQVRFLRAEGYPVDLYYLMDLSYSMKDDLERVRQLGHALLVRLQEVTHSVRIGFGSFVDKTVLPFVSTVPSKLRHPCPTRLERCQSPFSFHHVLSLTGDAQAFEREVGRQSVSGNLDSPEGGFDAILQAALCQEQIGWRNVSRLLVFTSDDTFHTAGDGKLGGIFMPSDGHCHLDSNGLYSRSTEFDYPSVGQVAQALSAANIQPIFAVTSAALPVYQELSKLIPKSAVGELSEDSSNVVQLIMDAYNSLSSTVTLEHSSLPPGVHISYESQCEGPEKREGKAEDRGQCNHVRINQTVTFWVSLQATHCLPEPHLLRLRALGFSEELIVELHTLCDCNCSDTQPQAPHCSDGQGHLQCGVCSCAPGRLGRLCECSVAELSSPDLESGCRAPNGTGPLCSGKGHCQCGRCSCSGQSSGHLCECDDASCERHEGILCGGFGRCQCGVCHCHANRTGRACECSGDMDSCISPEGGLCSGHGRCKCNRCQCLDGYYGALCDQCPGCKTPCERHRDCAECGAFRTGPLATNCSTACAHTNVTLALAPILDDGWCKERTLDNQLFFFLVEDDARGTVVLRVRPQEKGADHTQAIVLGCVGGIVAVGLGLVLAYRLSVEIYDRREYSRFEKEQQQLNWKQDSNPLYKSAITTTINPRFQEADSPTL

These are yes or no findings as the source states them, for the method shown. Some entries that bind do so weakly or less than the wild type.

The target in experiment [1] is Ang2-BDBC14, yeast-displayed (UniProt O15123). Kind of experiment: flow cytometry on cells; yeast-displayed Ang2-BD clones; 20 nM soluble Tie2-Fc, 1 h room temperature; FITC anti-human Fc detection; normalized to display level and to Ang2-BDWT; only the binder purified.
Experiment [2] deals with Ang2-BDBC35, yeast-displayed (UniProt O15123). The description is as above.
The target of experiment [3] is Ang2-BDWT, yeast-displayed (UniProt O15123). The description is as above.
The target of experiment [4] is Ang2-BDBC5, yeast-displayed (UniProt O15123). The description is as above.
For experiment [5], the target named is Ang2-BDBC6, yeast-displayed (UniProt O15123). The experiment is described as above.
Experiment [6] addresses Ang2-BDBC10, yeast-displayed (UniProt O15123). The description is as above.
The target in experiment [7] is Ang2-BDBC14, yeast-displayed (UniProt O15123). Briefly: flow cytometry on cells; yeast-displayed Ang2-BD clones; 50 nM solubilized integrins, 1 h room temperature; labelled anti-α-subunit antibodies; normalized to display level; only the binder purified.
The target of experiment [8] is Ang2-BDBC35, yeast-displayed (UniProt O15123). Described as above.
Experiment [9] concerns the target Ang2-BDBC5, yeast-displayed (UniProt O15123). The description is as above.
The target in experiment [10] is Ang2-BDBC6, yeast-displayed (UniProt O15123). Described as above.
Experiment [11] addresses Ang2-BDBC10, yeast-displayed (UniProt O15123). The experiment is described as above.
For experiment [12], the target named is Ang2-BDWT, yeast-displayed (UniProt O15123). The experiment is described as above.
Experiment [13] has the same target. Briefly: flow cytometry on cells; yeast-displayed Ang2-BD; 10 nM soluble αvβ3 integrin in IBB (20 mM Tris-HCl pH 7.5, 100 mM NaCl, 1 mM MnCl2, 2 mM CaCl2, 1% BSA), 1 h room temperature; FITC anti-αv detection, anti-cMyc for display; only the binder purified. Background: In flow cytometry, cells or beads pass a laser one at a time.
Experiment [14] addresses Tie2 expressed on TIME cells (human (endogenous in TIME cells)) (UniProt Q02763). Kind of experiment: flow cytometry on cells; competitive binding on TIME cells: 1 μM Ang2-BD variant alone or with 1000 ng/ml FL-Ang1 and/or 10 μM cRGD; anti-FLAG detection; only the binder purified.
Experiment [15] addresses T1, αvβ3 integrin expressed on TIME cells (human (endogenous in TIME cells)) (UniProt P06756+P05106). The experiment is described as above.
The target of experiment [16] is T1, αvβ3 integrin expressed on TIME cells (human (endogenous in TIME cells)). Briefly: flow cytometry on cells; 10^5 TIME cells with different concentrations of Ang2-BD variants in PBSA, 2 h at 4 °C; anti-FLAG detection; only the binder purified.
Experiment [17] addresses Tie2 expressed on TIME cells (human (endogenous in TIME cells)) (UniProt Q02763). The experiment is described as above.
The target in experiment [18] is recombinant α4β7 integrin (human) (UniProt P13612+P26010). Kind of experiment: SPR; integrins other than αvβ3 immobilized by amine coupling, 1 μM of the Ang2-BD variants as analyte, 25 °C, IBB; both purified. A general note: SPR reads the build-up and loss of mass on a sensor chip optically.

On to “Tie2-Fc (from UniProt Q02763 23-748) (Fc fusion)”, for which the binding entry in experiment [1], in [2], in experiment [3], in [4], in experiment [5] and in experiment [6] was “binds” throughout.

As to “recombinant α4β7 integrin (from UniProt P13612 35-977; P26010 20-723) (complex)”, the binding result in experiment [7], in experiment [8], in experiment [9], in [10] and in [11] was “no binding (tested: 50 nM)” in each case.

On to “recombinant αvβ3 integrin (from UniProt P06756 31-992; P05106 27-718) (complex)”, for which the binding entry in [7] is listed as “binds”; in experiment [8] it was “binds”; in experiment [12], “no binding (tested: 50 nM)”; in experiment [9] it was “binds”; in experiment [10], “binds”; in experiment [11], “binds”. Besides, the binding entry in experiment [13] was “no binding (tested: 10 nM)”.

Regarding “recombinant αvβ5 integrin (from UniProt P06756 31-992; P18084 24-719) (complex)”, the binding entry in [7], in [8], in [9], in experiment [10] and in experiment [11] was “binds weakly” in each case.

B1: Ang2-BDWT, soluble protein (domain or fragment, UniProt O15123 281-496, looked up)
chain: FRDCAEVFKSGHTTNGIYTLTFPNSTEEIKAYCDMEAGGGGWTIIQRREDGSVDFQRTWKEYKVGFGNPSGEYWLGNEFVSQLTNQQRYVLKIHLKDWEGNEAYSLYEHFYLSSEELNYRIHLKGLTGTAGKISSISQPGNDFSTKDGDNDKCICKCSQMLTGGWWFDACGPSNLNGMYYPQRQNTNKFNGIKWYYWKGSGYSLKATTMMIRPADF
notes: The limits 281-496 are stated for the Ang2-BDWT gene; also called wild-type Ang2 BD; mono-specific Ang2-BDWT; source: Pichia (Multi-Copy Pichia Expression Kit), purified from yeast culture supernatant (HisTrap, Superdex 200)
For the molecule B1, the binding result in [14] was “binds”.

B2: Ang2-BDBC6, soluble protein (designed binder)
chain: FRDCAEVFKSGHTTNGIYTLREGRGDNVDIKAYCDMEAGGGGWTIIQRREDGSVDFQRTWKEYKVGFGNPSGEYWLGNEFVSQLTNQQRYVLKIHLKDWEGNEAYSLYEHFYLSSEELNYRIHLKGLTGTAGKISSISQPGNDFSTKDGDNDKCICKCSQMLTGGWWFDACGPSNLNGMYYPQRQNTNKFNGIKWYYWKGSGYSLKATTMMIRPADF
notes: also called Ang2-BD bi-specific variant; source: Pichia (Multi-Copy Pichia Expression Kit), purified from yeast culture supernatant (HisTrap, Superdex 200)
For B2, the binding result in experiment [15] is “binds”; in [14], “binds”; in [16], “binds”; in [17] it was “binds”; in experiment [18], “no binding (tested: 1 μM)”.

B3: Ang2-BDBC10, soluble protein (designed binder)
chain: FRDCAEVFKSGHTTNGIYTLYPGRGDNPDIKAYCDMEAGGGGWTIIQRREDGSVDFQRTWKEYKVGFGNPSGEYWLGNEFVSQLTNQQRYVLKIHLKDWEGNEAYSLYEHFYLSSEELNYRIHLKGLTGTAGKISSISQPGNDFSTKDGDNDKCICKCSQMLTGGWWFDACGPSNLNGMYYPQRQNTNKFNGIKWYYWKGSGYSLKATTMMIRPADF
notes: as for B2
In the case of B3, the binding entry in [15] is reported as “binds”; in [14], “binds”; in experiment [16], “binds”; in [17], “binds”; in [18], “no binding (tested: 1 μM)”.

B4: Ang2-BDBC5, soluble protein (designed binder)
chain: FRDCAEVFKSGHTTNGIYTLNTCRGDCLPIKAYCDMEAGGGGWTIIQRREDGSVDFQRTWKEYKVGFGNPSGEYWLGNEFVSQLTNQQRYVLKIHLKDWEGNEAYSLYEHFYLSSEELNYRIHLKGLTGTAGKISSISQPGNDFSTKDGDNDKCICKCSQMLTGGWWFDACGPSNLNGMYYPQRQNTNKFNGIKWYYWKGSGYSLKATTMMIRPADF
notes: as for B2
Turning to B4, the binding entry in experiment [15] was “binds”; in experiment [14], “binds”; in experiment [16], “binds”; in [17], “binds”; in experiment [18] it was “no binding (tested: 1 μM)”.
